Source: PMC10711660, “An extended Tudor domain within Vreteno interconnects Gtsf1L and Ago3 for piRNA biogenesis in Bombyx mori” (The EMBO Journal, 2023)
No constants are given. Whether binding was seen depends on the method and setting. In cells and extracts the contact can be indirect. Some entries that bind do so weakly or less than the wild type. For some assays here: Where a sequence is shown, tags or fusion partners need not be part of it.

T1: endogenous BmAgo3 (Bombyx mori (endogenous in BmN4)) (UniProt A9ZSZ2)
T1 sequence: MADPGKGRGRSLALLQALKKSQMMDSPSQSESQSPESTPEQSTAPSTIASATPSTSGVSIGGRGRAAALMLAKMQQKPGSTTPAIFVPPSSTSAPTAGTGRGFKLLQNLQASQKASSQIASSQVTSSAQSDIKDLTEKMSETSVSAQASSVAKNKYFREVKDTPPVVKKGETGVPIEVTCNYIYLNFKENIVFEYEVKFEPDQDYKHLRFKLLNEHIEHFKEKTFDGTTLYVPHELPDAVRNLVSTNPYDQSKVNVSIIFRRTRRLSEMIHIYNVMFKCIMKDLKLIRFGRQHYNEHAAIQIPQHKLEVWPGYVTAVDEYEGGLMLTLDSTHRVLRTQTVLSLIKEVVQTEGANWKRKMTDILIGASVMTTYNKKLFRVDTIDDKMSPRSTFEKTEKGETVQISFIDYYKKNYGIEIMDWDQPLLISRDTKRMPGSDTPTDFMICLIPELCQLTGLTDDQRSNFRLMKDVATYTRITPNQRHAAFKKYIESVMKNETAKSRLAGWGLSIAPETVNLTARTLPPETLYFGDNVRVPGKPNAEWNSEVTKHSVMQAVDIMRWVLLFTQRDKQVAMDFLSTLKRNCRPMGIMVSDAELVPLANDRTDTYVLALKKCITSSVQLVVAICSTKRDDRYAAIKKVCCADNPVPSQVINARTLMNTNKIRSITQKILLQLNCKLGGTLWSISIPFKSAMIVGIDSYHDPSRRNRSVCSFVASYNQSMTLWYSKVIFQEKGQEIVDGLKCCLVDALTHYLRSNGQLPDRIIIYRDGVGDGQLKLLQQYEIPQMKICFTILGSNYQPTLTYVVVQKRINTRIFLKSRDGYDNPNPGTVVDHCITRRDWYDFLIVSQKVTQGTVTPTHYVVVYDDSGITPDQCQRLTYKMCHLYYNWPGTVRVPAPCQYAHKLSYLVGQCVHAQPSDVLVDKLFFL

T2: HA‐BmGtsf1L‐eGFP (Bombyx mori)
T2 sequence: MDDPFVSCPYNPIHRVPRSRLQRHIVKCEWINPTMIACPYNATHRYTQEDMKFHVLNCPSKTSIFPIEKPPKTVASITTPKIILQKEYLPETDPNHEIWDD

T3: endogenous Siwi (Bombyx mori (endogenous in BmN4)) (UniProt A8D8P8)
T3 sequence: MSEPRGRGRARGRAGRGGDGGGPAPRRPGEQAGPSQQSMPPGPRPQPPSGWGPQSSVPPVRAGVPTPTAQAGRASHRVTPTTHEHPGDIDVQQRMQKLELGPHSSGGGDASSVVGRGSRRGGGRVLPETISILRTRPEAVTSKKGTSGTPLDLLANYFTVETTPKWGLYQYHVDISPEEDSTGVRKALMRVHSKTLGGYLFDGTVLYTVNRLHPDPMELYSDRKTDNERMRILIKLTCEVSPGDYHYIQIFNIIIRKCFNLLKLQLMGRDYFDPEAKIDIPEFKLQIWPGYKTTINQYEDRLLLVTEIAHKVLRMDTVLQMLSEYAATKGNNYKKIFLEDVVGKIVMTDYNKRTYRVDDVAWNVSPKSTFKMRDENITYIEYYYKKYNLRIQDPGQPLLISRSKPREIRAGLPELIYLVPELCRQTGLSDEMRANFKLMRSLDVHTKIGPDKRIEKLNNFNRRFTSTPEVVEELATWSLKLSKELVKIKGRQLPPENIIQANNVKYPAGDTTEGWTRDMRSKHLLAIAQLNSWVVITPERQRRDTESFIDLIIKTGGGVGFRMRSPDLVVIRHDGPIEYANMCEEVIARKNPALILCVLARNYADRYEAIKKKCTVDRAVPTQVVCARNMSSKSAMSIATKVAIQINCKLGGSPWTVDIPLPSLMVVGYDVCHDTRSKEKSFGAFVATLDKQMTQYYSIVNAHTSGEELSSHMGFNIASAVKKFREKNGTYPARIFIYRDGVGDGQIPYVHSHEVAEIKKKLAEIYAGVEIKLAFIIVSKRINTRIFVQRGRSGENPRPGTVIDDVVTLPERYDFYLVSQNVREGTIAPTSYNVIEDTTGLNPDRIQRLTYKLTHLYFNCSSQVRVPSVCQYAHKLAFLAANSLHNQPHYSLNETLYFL

T4: full length (FL) BmGtsf1L‐eGFP (Bombyx mori)
T4 sequence: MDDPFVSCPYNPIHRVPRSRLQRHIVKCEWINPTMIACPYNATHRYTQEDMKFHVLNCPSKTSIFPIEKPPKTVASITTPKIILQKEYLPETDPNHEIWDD

T5: HA‐tagged BmGtsf1L (Bombyx mori)
T5 sequence: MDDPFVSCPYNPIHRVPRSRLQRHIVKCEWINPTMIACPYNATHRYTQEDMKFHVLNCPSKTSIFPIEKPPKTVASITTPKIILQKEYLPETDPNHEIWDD

B1: endogenous BmGtsf1L (protein)
chain: MDDPFVSCPYNPIHRVPRSRLQRHIVKCEWINPTMIACPYNATHRYTQEDMKFHVLNCPSKTSIFPIEKPPKTVASITTPKIILQKEYLPETDPNHEIWDD
B2: endogenous BmVreteno‐Long (L) isoform (protein)
chain: MSNHSRPQRRREWDPMRDDFNEHTYDVQYADDNAGEQVQLDHTKLYIINIPRGLSEDGIRAAFSKHGKVLSARLSKNPNKRFAIVQFETASEAKLAMMKMNGSEPLNLKISIAHKTIRKTQHDNKDRNYSTSRNGHCSRDEASSISSKGWNMRNLDDVMNNDEIDEIDDMIHEDHDDNLDLELDMLTLKQLKIKEEQLMCKRRLLLRHAEKRQVAPHSSAGRSVLPDGRIVVRNNANETDSAEVEPSFAGAGSESLKTPGLERNASRQCVKCGAPADWYCSRCAITPYCSQTCQTRDWTERHKSVCHYLAPLKTAGGFEAEATSSKSVSNSTPMRSSHSPPTKQQRGEADETDNKAKNIQEPRQNYHRPSNSGPNKNIPGKNQDPRRPATSREAIEEETEERGARNPKPAEATKDKHHPMNPVTFQRRQLKSNPVVDAQPAPREQQQPAATRAPEASPTEQRESTRRTLVPDRCLIDSLSEGDVVLVSVELKASECCTKQGGYVCLSMHEKYESDYQKLCEDYVLDCEADSDEYKIITGDTFSYLSPEDGGWYRARALNTTMAALLDGSKVVYLRMNDKVKKLPAKYSGIPEFCCVLNADVEVGLNLKCSLLSKTPNGFKVTLENVETEANVGEGEITRWIPEVDYPPPVKNVPVQRSVEIPEVPRPEIKNKSRVILVDATDVQRVFVRPADTRSQKAFDNILQDVLLYGTTAEPLKEPPSKGQTVVSKYTDNLHYRALCKRTSVNKNKYLLEYIEYGNIEITQLNRLYPCPEHLSVTSLASLTSHVQLDTTVGELTPRALEYIETIKEEEMILTLSSGGDTAQSGAALVNLTLVKNNDNVNKRIEELCTPEWKKLELKGVDVIETERLMYGTALDYIELPAAPFDLQVLDEVGLDSGNISGCPTNSDYVRYVMTKLPARMREYCESEFGRQPYLPAAEELCIAQLPPSSEWHRAVVLEQILGPGGGTARVLFVDHGNVAEVPVSSLRKMLAEFVTDLPAVACQIVIEDFPKQATAEMLAKARRFMSGPDKARAAQLPVRGCDKQDVGIYAIRVPELLEAMTE
B3: HA‐BmGtsf1L‐eGFP (protein)
chain: MDDPFVSCPYNPIHRVPRSRLQRHIVKCEWINPTMIACPYNATHRYTQEDMKFHVLNCPSKTSIFPIEKPPKTVASITTPKIILQKEYLPETDPNHEIWDD
B4: 3xFLAG‐BmAgo3 (protein, UniProt A9ZSZ2 1-926)
chain: MADPGKGRGRSLALLQALKKSQMMDSPSQSESQSPESTPEQSTAPSTIASATPSTSGVSIGGRGRAAALMLAKMQQKPGSTTPAIFVPPSSTSAPTAGTGRGFKLLQNLQASQKASSQIASSQVTSSAQSDIKDLTEKMSETSVSAQASSVAKNKYFREVKDTPPVVKKGETGVPIEVTCNYIYLNFKENIVFEYEVKFEPDQDYKHLRFKLLNEHIEHFKEKTFDGTTLYVPHELPDAVRNLVSTNPYDQSKVNVSIIFRRTRRLSEMIHIYNVMFKCIMKDLKLIRFGRQHYNEHAAIQIPQHKLEVWPGYVTAVDEYEGGLMLTLDSTHRVLRTQTVLSLIKEVVQTEGANWKRKMTDILIGASVMTTYNKKLFRVDTIDDKMSPRSTFEKTEKGETVQISFIDYYKKNYGIEIMDWDQPLLISRDTKRMPGSDTPTDFMICLIPELCQLTGLTDDQRSNFRLMKDVATYTRITPNQRHAAFKKYIESVMKNETAKSRLAGWGLSIAPETVNLTARTLPPETLYFGDNVRVPGKPNAEWNSEVTKHSVMQAVDIMRWVLLFTQRDKQVAMDFLSTLKRNCRPMGIMVSDAELVPLANDRTDTYVLALKKCITSSVQLVVAICSTKRDDRYAAIKKVCCADNPVPSQVINARTLMNTNKIRSITQKILLQLNCKLGGTLWSISIPFKSAMIVGIDSYHDPSRRNRSVCSFVASYNQSMTLWYSKVIFQEKGQEIVDGLKCCLVDALTHYLRSNGQLPDRIIIYRDGVGDGQLKLLQQYEIPQMKICFTILGSNYQPTLTYVVVQKRINTRIFLKSRDGYDNPNPGTVVDHCITRRDWYDFLIVSQKVTQGTVTPTHYVVVYDDSGITPDQCQRLTYKMCHLYYNWPGTVRVPAPCQYAHKLSYLVGQCVHAQPSDVLVDKLFFL

Columns and labels:
[1] = molecular target: T1, endogenous BmAgo3 (Bombyx mori (endogenous in BmN4)); test: co-IP; antibodies to endogenous BmAgo3, Siwi or BmVreteno on Protein G Dynabeads, lysate of naive BmN4 cells; non-immune serum or rabbit IgG as control; IP-150 buffer, overnight 4°C; Western blot
[2] = molecular target: T2, HA‐BmGtsf1L‐eGFP (Bombyx mori); test: co-IP; GFP-Trap magnetic agarose or control beads, lysate of BmN4 cells stably expressing HA-BmGtsf1L-eGFP; also after dsRNA knock-down of luciferase, BmAgo3 or BmVreteno; IP-150 buffer, overnight 4°C; Western blot
[3] = molecular target: T1, endogenous BmAgo3 (Bombyx mori (endogenous in BmN4)); test: co-IP; antibodies to endogenous BmAgo3, Siwi or BmVreteno on Protein G Dynabeads, lysate of BmN4 cells stably expressing HA-BmGtsf1L-eGFP; also after dsRNA knock-down of luciferase, BmGtsf1L or BmVreteno; IP-150 buffer, overnight 4°C; Western blot
[4] = molecular target: T3, endogenous Siwi (Bombyx mori (endogenous in BmN4)); test: as above
[5] = molecular target: T4, full length (FL) BmGtsf1L‐eGFP (Bombyx mori); test: co-IP; GFP or control immunoprecipitation on extracts of FLAG-PIWI stable BmN4 cells co-transfected with BmGtsf1L-eGFP; Western blot
[6] = molecular target: T5, HA‐tagged BmGtsf1L (Bombyx mori); test: co-IP; anti-HA magnetic beads, lysate of BmN4 cells transiently transfected with HA-BmGtsf1L (with FLAG-tagged partners or alone); IP-150 buffer (150 mM KOAc, 0.1% Igepal), overnight 4°C; with or without RNase A/T1; Western blot

Row | Binder | binding [1] | binding [3] | also measured
1 | B1 | binds | – | –
2 | B2 | binds | binds | binding [2]: binds
3 | B3 | – | binds | binding [4]: binds weakly
4 | B4 | – | – | binding [5]: binds; binding [6]: binds
